Experimental findings from ChEMBL document CHEMBL4888484, “Replenishing the malaria drug discovery pipeline: Screening and hit evaluation of the MMV Hit Generation Library 1 (HGL1) against asexual blood stage Plasmodium falciparum ,using a nano luciferase reporter read-out” (2022) are described below.

Molecules are shown by their SMILES. The campaign covered roughly 150,000 compounds. About 540 (0.36%) showed an effect of 50% or more. This is one part of the list.

The subject of the assay is Plasmodium falciparum. As to the kind of experiment: Primary screen in NF54 nanoGlo assay, in single point, at 2uM, 72h; a lower Z score goes with more inhibition. It counts as functional, Erythrocyte. To be noted: timepoint 72 hour.
As usually defined, the % Inhibition is the relative decrease from the control value, in per cent. Turning to `O=C(NCc1ccc(O)nc1)c1cc(F)c(Cl)cc1F`, the “% Inhibition” value was -16% and the Z score came out at 1.46.
The matching figures for `NC(=O)c1ccc(-c2nc([C@@H]3C[C@@H](O)CN3)n(C3CCCCC3)n2)cc1`: -7% and 1.18.
As for `CC(C)OC(=O)c1ccc(NC(=O)C(C)N2CCC(CN3CCCCC3)C2)cc1` (stereo not drawn), the “% Inhibition” value turned out to be 4% and the Z score is recorded as -0.56.
On to `Cn1c(Cn2cncn2)nnc1C1CCN(c2ccncc2F)CC1`, for which the “% Inhibition” value is -14% and the Z score is on record as 1.76.
Regarding `Cn1cnc(C(=O)N[C@@H]2[C@H]3CCO[C@H]3[C@H]2Cc2ccccc2)c1`, the “% Inhibition” value is on record as -10% and the Z score amounted to 1.56.
In the case of `COc1cc(CN(C)Cc2cccnc2)ccc1OC[C@@H](O)CN1CCOCC1`, the “% Inhibition” value was -9% and the Z score was 1.23.
For the molecule `CC(C)(C)OC(=O)N1CC(Oc2nc3ccccc3s2)C1`, the “% Inhibition” value is -8% and the Z score is 0.98.
The corresponding values for `CO[C@](C)(C(=O)N1CCC12CCOCC2)C1CC1` are -10% and 1.04.
The matching figures for `Cn1c(=O)[nH]c(=O)c2c1nc(N1CCN(CC=Cc3ccccc3)CC1)n2Cc1ccc(Cl)cc1`: 6% and -1.17.
On to `CC(=O)N1CCc2[nH]cnc2C12CCN(C(=O)CCOc1ccccc1)CC2`, for which the “% Inhibition” value was -2% and the Z score is recorded as 0.39.
For `CN1C(=O)[C@]2(Nc3ccccc3C(=O)N2CCc2ccccc2)c2ccccc21`, the “% Inhibition” value was -3% and the Z score is on record as 0.48.
The matching figures for `COc1ccc(OC/C=C/CN(C)C)cc1`: -6% and 0.7.
Turning to `Cc1noc(C)c1CN(C)S(=O)(=O)c1cccnc1`, the “% Inhibition” value turned out to be 3% and the Z score is recorded as -0.28.
The corresponding values for `O=C1CN(C(=O)Nc2cccc(F)c2)C2CCCCC2N1` (stereo not drawn) are 34% and -3.8.
The matching figures for `Cc1cc2n(n1)CCC(=O)N2CC(=O)N(C)Cc1ccccc1`: -9% and 0.91.
The corresponding values for `COc1ccc(C2CC3(O)CC(C#N)(C(=O)N3)C2(C#N)C#N)cc1` (stereo not drawn) are -11% and 1.23.
Turning to `CC(C)CN(Cc1cc(Cl)ccc1OS(C)(=O)=O)C(=O)CC(C)(C)C`, the “% Inhibition” value was 6% and the Z score is given as -0.62.
Turning to `O=C(Cc1ccc(F)cc1)Nc1cc(S(=O)(=O)N2CCOCC2)ccc1Oc1ccc(F)cc1`, the “% Inhibition” value is -14% and the Z score is 1.22.
The corresponding values for `CCCNC(=O)N1CCC[C@@]2(CCC(=O)N(CCc3ccccc3)C2)C1` are -13% and 1.71.
The corresponding values for `Cc1ccc(CCC(=O)NCc2ccc3c(c2)OCO3)cc1` are -12% and 1.72.
The matching figures for `O=C(Cc1nnc(O)c2ccccc12)Nc1cccc(S(=O)(=O)N2CCCC2)c1`: -17% and 1.4.
In the case of `NC(=O)CCC(NC(=O)CCC1CCCC1)C(=O)NCC1(C(O)c2ccccc2)CC1` (stereo not drawn), the “% Inhibition” value is reported as -2% and the Z score is reported as 0.21.
The matching figures for `O=S(=O)(Cc1csc(COc2ccc(Cl)cc2)n1)C[C@H]1CCOC1`: -17% and 2.15.
The corresponding values for `O=C(O)C1CCN(CC(Cc2ccccc2)Cc2ccccc2)CC1` are -3% and 0.45.
The corresponding values for `COc1ccc(CCC(=O)N[C@H]2CC[C@H](Oc3nccnc3C#N)CC2)cc1` are -15% and 1.72.
In the case of `CCc1ccc(OCCN(C)C(=O)CC2=CCNCC2)cc1`, the “% Inhibition” value is -12% and the Z score was determined as 2.25.
The corresponding values for `O=C1NC(c2ccc(-c3cccc(Cl)c3)o2)C(C(=O)c2ccccc2)C(O)(C(F)(F)F)N1` (stereo not drawn) are -6% and 1.11.
The matching figures for `Cn1cc(Cl)cc1C(=O)N1CCC(OCCN2CCCC2)CC1`: -5% and 0.63.
The corresponding values for `CCCc1nnc(N2CCC[C@@]3(CCN(C)C3)C2)o1` are -10% and 1.13.
As to `CCc1ccccc1S(=O)(=O)N1CC[C@H](c2nc(N(C)C)ncc2C(=O)NC(C)C)C1`, the “% Inhibition” value was -9% and the Z score turned out to be 1.29.
The corresponding values for `COc1ccc(Cl)cc1C(=O)NC1CC2CCC(C1)N2S(C)(=O)=O` (stereo not drawn) are -10% and 1.33.
Consider `CCCC(CCC)C(=O)Nc1ccccc1OC`, for which the “% Inhibition” value is -14% and the Z score is reported as 2.59.
The matching figures for `COc1cccc(-c2cn(C)c3c(=O)n(CC(=O)Nc4ccc(C(F)(F)F)cc4)cnc23)c1`: 37% and -0.83.
The corresponding values for `CCN(CC(=O)Nc1c(C)nn(C)c1C)[C@@H](C)C(C)C` are 0% and -0.05.
`CN(CC(N)=O)S(=O)(=O)c1cc(F)ccc1F`: the “% Inhibition” value amounted to 1% and the Z score is recorded as -0.11.
`CCN(CC(=O)Nc1ccc(NC(C)=O)cc1)C(=O)c1cc(C)on1`: the “% Inhibition” value is reported as -7% and the Z score was determined as 1.3.
The matching figures for `CN(C)C(=O)Nc1cccc2c1C[C@@](c1ccccc1)(C(F)(F)F)O2`: -16% and 1.87.
The matching figures for `Cc1cc(NCCc2ccc(S(N)(=O)=O)s2)nc(C)n1`: -4% and 0.63.
As for `C[C@H](Oc1ccc(F)cc1)C(=O)N1CCC(c2nc3ccccc3o2)CC1`, the “% Inhibition” value is listed as -30% and the Z score was 2.67.
Regarding `CCC(C)(C)NCC(=O)Nc1c(Br)cc(C)cc1Br`, the “% Inhibition” value was 1% and the Z score was -0.22.
Take `C[C@H]1c2ccsc2CCN1C(=O)c1cnn(-c2ccccc2)n1`: the “% Inhibition” value was -3% and the Z score is on record as 0.52.
For `Cc1ccc2c(C(=O)[C@H](C#N)C(=O)c3noc4c3CCCC4)c[nH]c2c1`, the “% Inhibition” value is -3% and the Z score worked out at 0.59.
The matching figures for `O=C(CN1CCCCC1)Nc1ccc2c(c1)OCO2`: -7% and 0.61.
On to `Cc1noc(C)c1CS(=O)(=O)CC(=O)NC[C@H]1CCCO1`, for which the “% Inhibition” value is -8% and the Z score worked out at 1.55.
Consider `CN(Cc1csc(-c2ccccc2)n1)C(=O)c1cn(C2CCCCC2)nn1`, for which the “% Inhibition” value is recorded as -12% and the Z score came to 1.76.
The matching figures for `CC(C)(C)C(=O)NCCC(=O)N(CC(F)(F)F)c1ccccn1`: 3% and -0.4.
As to `COc1nc2c(cc1CNC(=O)c1ccco1)C(=O)N(C1CCCC1)C2`, the “% Inhibition” value is given as -7% and the Z score was found to be 0.94.
For `COc1ccc(COCC(=O)N2CC(CC#N)C2)cn1`, the “% Inhibition” value is 7% and the Z score is -1.34.
For the molecule `CCc1nn(-c2ccccc2)c(CC)c1CNC(=O)N1CC(C)C(C)(CO)C1` (stereo not drawn), the “% Inhibition” value was -12% and the Z score turned out to be 1.66.
The corresponding values for `Cc1cccc(CNc2nc(C)c(-c3ccn(CCO)n3)s2)c1` are -3% and 0.34.
For `Cc1cccc(CN2CCC[C@@]3(CCN(C(=O)c4c(C)noc4C)C3)C2)c1`, the “% Inhibition” value is -9% and the Z score was found to be 1.18.
The matching figures for `CNCc1cccc(Br)c1OC`: -1% and 0.17.
The corresponding values for `CCC(CC)(CC(=O)O)NC(=O)[C@@H]1CCC=CCCC1` are -1% and 0.15.
The corresponding values for `CCn1ncc(S(=O)(=O)N[C@@H]2COCC[C@@H]2OCC=C(C)C)c1C` are 3% and -0.47.
